Assay results reported in the supplement of paper PMC8728848.
The list shows a part of the results.

Columns and labels:
Assay in all cases: glycan array binding signal (z-score within array); higher = stronger binding
Conditions in all cases: glycan notation: IUPAC condensed, linker removed
[1] = target: Fuc(a1-2)[GalNAc(a1-3)]Gal(b1-4)GlcNAc(b1-3)GalNAc
Procedure, shortened: (§1)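 Arrays were curated from the Consortium for Functional Glycomics database, 3228 in total, and kept only where the protein sequence was available. Binding is expressed as a within-array Z-score. This score was averaged across arrays of the same protein sequence at different concentrations or buffers and across linkers, and negative values can be read as non-binding.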

[2] = target: Fuc(a1-2)[GalNAc(a1-3)]Gal(b1-4)[Fuc(a1-3)]GlcNAc
Procedure, shortened: as §1

[3] = target: Fuc(a1-2)[GalNAc(a1-3)]Gal(b1-4)[Fuc(a1-3)]GlcNAc(b1-3)GalNAc
Procedure, shortened: as §1

[4] = target: Fuc(a1-2)[GalNAc(a1-4)]Gal(b1-4)GlcNAc
Procedure, shortened: as §1

[5] = target: Fuc(a1-2)[GalNAc(b1-3)]Gal
Procedure, shortened: as §1

[6] = target: Fuc(a1-3)GlcNAc
Procedure, shortened: as §1

[7] = target: Fuc(a1-3)[Gal(b1-4)]Glc6S
Procedure, shortened: as §1

[8] = target: Fuc(a1-3)[Gal(b1-4)]GlcNAc
Procedure, shortened: as §1

[9] = target: Fuc(a1-3)[Gal(b1-4)]GlcNAc(b1-2)Man(a1-3)[Fuc(a1-3)[Gal(b1-4)]GlcNAc(b1-2)Man(a1-6)]Man(b1-4)GlcNAc(b1-4)GlcNAc
Procedure, shortened: as §1

[10] = target: Fuc(a1-3)[Gal(b1-4)]GlcNAc(b1-2)Man(a1-3)[Fuc(a1-3)[Gal(b1-4)]GlcNAc(b1-2)Man(a1-6)]Man(b1-4)GlcNAc(b1-4)[Fuc(a1-6)]GlcNAc
Procedure, shortened: as §1

[11] = target: Fuc(a1-3)[Gal(b1-4)]GlcNAc(b1-3)Gal(b1-3)[Fuc(a1-4)]GlcNAc
Procedure, shortened: as §1

[12] = target: Fuc(a1-3)[Gal(b1-4)]GlcNAc(b1-3)GalNAc
Procedure, shortened: as §1

[13] = target: Fuc(a1-3)[Gal(b1-4)]GlcNAc(b1-4)Gal(b1-4)[Fuc(a1-3)]GlcNAc
Procedure, shortened: as §1

[14] = target: Fuc(a1-3)[Gal(b1-4)]GlcNAc(b1-4)Gal(b1-4)[Fuc(a1-3)]GlcNAc(b1-4)Gal(b1-4)[Fuc(a1-3)]GlcNAc
Procedure, shortened: as §1

[15] = target: Fuc(a1-3)[Gal(b1-4)]GlcNAc(b1-6)[Gal(b1-3)GlcNAc(b1-3)]Gal(b1-4)Glc
Procedure, shortened: as §1

[16] = target: Fuc(a1-3)[Gal(b1-4)]GlcNAc6S
Procedure, shortened: as §1

[17] = target: Fuc(a1-3)[Gal3S(b1-4)]GlcNAc
Procedure, shortened: as §1

[18] = target: Fuc(a1-3)[Gal3S(b1-4)]GlcNAc6S
Procedure, shortened: as §1

[19] = target: Fuc(a1-3)[GalNAc(b1-4)]GlcNAc
Procedure, shortened: as §1

[20] = target: Fuc(a1-4)GlcNAc
Procedure, shortened: as §1

[21] = target: Fuc(b1-3)GlcNAc
Procedure, shortened: as §1

[22] = target: Gal(a1-2)Gal
Procedure, shortened: as §1

[23] = target: Gal(a1-3)Gal
Procedure, shortened: as §1

[24] = target: Gal(a1-3)Gal(b1-3)GlcNAc
Procedure, shortened: as §1

[25] = target: Gal(a1-3)Gal(b1-3)GlcNAc(b1-2)Man(a1-3)[Gal(a1-3)Gal(b1-3)GlcNAc(b1-2)Man(a1-6)]Man(b1-4)GlcNAc(b1-4)GlcNAc
Procedure, shortened: as §1

[26] = target: Gal(a1-3)Gal(b1-3)GlcNAc(b1-3)GalNAc
Procedure, shortened: as §1

[27] = target: Gal(a1-3)Gal(b1-3)[Fuc(a1-4)]GlcNAc(b1-2)Man(a1-3)[Gal(a1-3)Gal(b1-3)[Fuc(a1-4)]GlcNAc(b1-2)Man(a1-6)]Man(b1-4)GlcNAc(b1-4)GlcNAc
Procedure, shortened: as §1

[28] = target: Gal(a1-3)Gal(b1-4)Glc
Procedure, shortened: as §1

[29] = target: Gal(a1-3)Gal(b1-4)GlcNAc
Procedure, shortened: as §1

[30] = target: Gal(a1-3)Gal(b1-4)GlcNAc(b1-3)GalNAc
Procedure, shortened: as §1

[31] = target: Gal(a1-3)Gal(b1-4)[Fuc(a1-3)]GlcNAc
Procedure, shortened: as §1

[32] = target: Gal(a1-3)Gal(b1-4)[Fuc(a1-3)]GlcNAc(b1-2)Man(a1-3)[Gal(a1-3)Gal(b1-4)[Fuc(a1-3)]GlcNAc(b1-2)Man(a1-6)]Man(b1-4)GlcNAc(b1-4)GlcNAc
Procedure, shortened: as §1

[33] = target: Gal(a1-3)GalNAc
Procedure, shortened: as §1

[34] = target: Gal(a1-3)[Gal(a1-4)]Gal(b1-4)GlcNAc
Procedure, shortened: as §1

[35] = target: Gal(a1-4)Gal(b1-3)GlcNAc(b1-2)Man(a1-3)[Gal(a1-4)Gal(b1-3)GlcNAc(b1-2)Man(a1-6)]Man(b1-4)GlcNAc(b1-4)GlcNAc
Procedure, shortened: as §1

[36] = target: Gal(a1-4)Gal(b1-4)Glc
Procedure, shortened: as §1

[37] = target: Gal(a1-4)Gal(b1-4)GlcNAc
Procedure, shortened: as §1

[38] = target: Gal(a1-4)Gal(b1-4)GlcNAc(b1-2)Man(a1-3)[Gal(a1-4)Gal(b1-4)GlcNAc(b1-2)Man(a1-6)]Man(b1-4)GlcNAc(b1-4)GlcNAc
Procedure, shortened: as §1

[39] = target: Gal(a1-4)Gal(b1-4)GlcNAc(b1-3)Gal(b1-4)Glc
Procedure, shortened: as §1

[40] = target: Gal(a1-4)GlcNAc
Procedure, shortened: as §1

[41] = target: Gal(a1-6)Glc
Procedure, shortened: as §1

[42] = target: Gal(b1-2)Gal
Procedure, shortened: as §1

[43] = target: Gal(b1-3)Gal
Procedure, shortened: as §1

[44] = target: Gal(b1-3)Gal(b1-4)GlcNAc
Procedure, shortened: as §1

[45] = target: Gal(b1-3)Gal(b1-4)GlcNAc(b1-2)Man(a1-3)[Gal(b1-3)Gal(b1-4)GlcNAc(b1-2)Man(a1-6)]Man(b1-4)GlcNAc(b1-4)GlcNAc
Procedure, shortened: as §1

[46] = target: Gal(b1-3)GalNAc
Procedure, shortened: as §1

[47] = target: Gal(b1-3)GalNAc(a1-3)[Fuc(a1-2)]Gal(b1-4)Glc
Procedure, shortened: as §1

[48] = target: Gal(b1-3)GalNAc(a1-3)[Fuc(a1-2)]Gal(b1-4)GlcNAc
Procedure, shortened: as §1

[49] = target: Gal(b1-3)GalNAc(b1-3)Gal(a1-4)Gal(b1-4)Glc
Procedure, shortened: as §1

[50] = target: Gal(b1-3)GalNAc(b1-4)Gal(b1-4)Glc
Procedure, shortened: as §1

[51] = target: Gal(b1-3)GalNAc(b1-4)[Neu5Ac(a2-3)]Gal(b1-4)Glc
Procedure, shortened: as §1

[52] = target: Gal(b1-3)GlcNAc
Procedure, shortened: as §1

[53] = target: Gal(b1-3)GlcNAc(a1-6)Gal(b1-4)GlcNAc
Procedure, shortened: as §1

[54] = target: Gal(b1-3)GlcNAc(b1-2)Man(a1-3)[Gal(b1-3)GlcNAc(b1-2)Man(a1-6)]Man(b1-4)GlcNAc(b1-4)GlcNAc
Procedure, shortened: as §1

[55] = target: Gal(b1-3)GlcNAc(b1-2)Man(a1-3)[Gal(b1-3)GlcNAc(b1-2)Man(a1-6)]Man(b1-4)GlcNAc(b1-4)[Fuc(a1-6)]GlcNAc
Procedure, shortened: as §1

[56] = target: Gal(b1-3)GlcNAc(b1-2)[Gal(b1-3)GlcNAc(b1-6)]Man(a1-6)[Gal(b1-3)GlcNAc(b1-2)Man(a1-3)]Man(b1-4)GlcNAc(b1-4)GlcNAc
Procedure, shortened: as §1

[57] = target: Gal(b1-3)GlcNAc(b1-3)Gal(b1-3)GlcNAc
Procedure, shortened: as §1

[58] = target: Gal(b1-3)GlcNAc(b1-3)Gal(b1-4)Glc
Procedure, shortened: as §1

[59] = target: Gal(b1-3)GlcNAc(b1-3)Gal(b1-4)GlcNAc
Procedure, shortened: as §1

[60] = target: Gal(b1-3)GlcNAc(b1-3)Gal(b1-4)GlcNAc(b1-6)[Gal(b1-3)GlcNAc(b1-3)]Gal(b1-4)Glc
Procedure, shortened: as §1

B1: CwpV (Clostridium difficile), B6EFG6 (protein)
chain: MKIPKKIAAMLTVTMIAGSSTAGIASAQTVATNLTGQERYETAVKISQDGWKNADEVVIVNDSSIADALSATPFAKAKNAPILLTSKDKLNDKTKAEIQRLKAKKVYLIGGTSVLSTNIEKEIKDLKISFERISGAERYQTSLELAKKLDAISDVKKIAVVNGEKGLADAVSVGAPAAQNNMPVILADSKNGTAVADKFIKDAGITQSYVVGGESSISEAVKNKLPNSTRLGGTDRNDTNAKVIKEFYKKTDLKNAYVTKDGMNKQDQLIDALAVGVLGAKNQSPVVLVGKNLSASQKSLVNSKSFDKITKVGGNGNETAFNEMKSLQEVKTVEAKTISELKSAIDKATANDVINFKPTSEVKEAFTIQTDKAVTVNLNGTYTKTVTINMPNGDVNNYAKVDDVVIDDVKDGTFVNYGKITNLKVNDKNGAKIENNSKGEIGSLTVASGASQVKVTNGGKITTVTNNSKGTTIDNKGTISSVKGDNSPTISGNSPSSNSSGGSSSSGGSSGGSSGGSSSSKVGQIKFSATDKQIKMASGDKTVDPSDNTYILKLTNGTVKDGDVKANVKVAGLPSGLDYTAVGNRSANTITITVSGTTSQSIQNDLNNVSVLVKAGAVSGTGATDSIANTTFEIKKYVAAPAVGQLTFDATDKQIKMASGDKTVDPSDDTYVLTLTKGTAKDGDIKANVEVTGLPSGLDYTAEGDSSANTITIPVSGTASPAVQTDLDNVSVLVKAGAVSETTATDSAANATFEVKKYVAPAVGQLTFDATDKQIKMASGDKTVDPSDDTYVLTLTKGTAKDGDIKANVEVTGLPSGLDYTAEGDSSANTITITVSGTASQAVQTDLDNVSVLVKAGAVSETTATDSAANATFEVKKYVAPAIGQLTFDATDKQIKMASGDKTVDPSDDTYVLTLTKGTAKDGDIKANVEVTGLPSGLDYTAEGDSSANTITITVSGTASQAVQTDLDNVSVLVKAGAVSETTATDSAANATFEVKKHASDPISTIGKISSGLSSLFNILK
glycan array binding signal (z-score) [1]: 0.006
glycan array binding signal (z-score) [2]: -0.106
glycan array binding signal (z-score) [3]: 0.501
glycan array binding signal (z-score) [4]: 0.344
glycan array binding signal (z-score) [5]: -0.249
glycan array binding signal (z-score) [6]: -0.277
glycan array binding signal (z-score) [7]: -0.148
glycan array binding signal (z-score) [8]: -0.247
glycan array binding signal (z-score) [9]: -0.175
glycan array binding signal (z-score) [10]: 0.011
glycan array binding signal (z-score) [11]: -0.336
glycan array binding signal (z-score) [12]: 0.07
glycan array binding signal (z-score) [13]: 0.31
glycan array binding signal (z-score) [14]: 0.405
glycan array binding signal (z-score) [15]: -0.298
glycan array binding signal (z-score) [16]: 0.248
glycan array binding signal (z-score) [17]: -0.307
glycan array binding signal (z-score) [18]: 0.503
glycan array binding signal (z-score) [19]: -0.291
glycan array binding signal (z-score) [20]: -0.3
glycan array binding signal (z-score) [21]: -0.338
glycan array binding signal (z-score) [22]: -0.332
glycan array binding signal (z-score) [23]: -0.326
glycan array binding signal (z-score) [24]: -0.254
glycan array binding signal (z-score) [25]: 0.365
glycan array binding signal (z-score) [26]: 0.556
glycan array binding signal (z-score) [27]: 0.538
glycan array binding signal (z-score) [28]: -0.314
glycan array binding signal (z-score) [29]: -0.273
glycan array binding signal (z-score) [30]: -0.283
glycan array binding signal (z-score) [31]: -0.309
glycan array binding signal (z-score) [32]: -0.297
glycan array binding signal (z-score) [33]: -0.303
glycan array binding signal (z-score) [34]: 0.592
glycan array binding signal (z-score) [35]: 1.08
glycan array binding signal (z-score) [36]: -0.084
glycan array binding signal (z-score) [37]: 2.24
glycan array binding signal (z-score) [38]: 9.72
glycan array binding signal (z-score) [39]: 2.79
glycan array binding signal (z-score) [40]: -0.282
glycan array binding signal (z-score) [41]: -0.279
glycan array binding signal (z-score) [42]: -0.319
glycan array binding signal (z-score) [43]: -0.305
glycan array binding signal (z-score) [44]: -0.025
glycan array binding signal (z-score) [45]: -0.151
glycan array binding signal (z-score) [46]: -0.3
glycan array binding signal (z-score) [47]: -0.16
glycan array binding signal (z-score) [48]: -0.248
glycan array binding signal (z-score) [49]: 1.95
glycan array binding signal (z-score) [50]: -0.063
glycan array binding signal (z-score) [51]: -0.331
glycan array binding signal (z-score) [52]: -0.271
glycan array binding signal (z-score) [53]: -0.294
glycan array binding signal (z-score) [54]: -0.308
glycan array binding signal (z-score) [55]: 0.023
glycan array binding signal (z-score) [56]: 0.182
glycan array binding signal (z-score) [57]: -0.249
glycan array binding signal (z-score) [58]: -0.342
glycan array binding signal (z-score) [59]: 0.622
glycan array binding signal (z-score) [60]: -0.255
